Measured values from publication PMC4336329 (PLoS ONE, 2015).
In all, about 310,000 compounds went through this assay and about 14,000 (4.5%) showed an effect of 50% or more. Effects have a minus sign here. Some of the results follow.

Target: human ether-à-go-go-related gene (hERG) potassium channel (human, UniProt Q12809)
Assay: primary screen, population patch clamp on CHO cells stably expressing hERG
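Also: peak tail current of the secondary pulse compared with the same well before compound.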

Chain of human ether-à-go-go-related gene (hERG) potassium channel (Q12809 whole entry, looked up): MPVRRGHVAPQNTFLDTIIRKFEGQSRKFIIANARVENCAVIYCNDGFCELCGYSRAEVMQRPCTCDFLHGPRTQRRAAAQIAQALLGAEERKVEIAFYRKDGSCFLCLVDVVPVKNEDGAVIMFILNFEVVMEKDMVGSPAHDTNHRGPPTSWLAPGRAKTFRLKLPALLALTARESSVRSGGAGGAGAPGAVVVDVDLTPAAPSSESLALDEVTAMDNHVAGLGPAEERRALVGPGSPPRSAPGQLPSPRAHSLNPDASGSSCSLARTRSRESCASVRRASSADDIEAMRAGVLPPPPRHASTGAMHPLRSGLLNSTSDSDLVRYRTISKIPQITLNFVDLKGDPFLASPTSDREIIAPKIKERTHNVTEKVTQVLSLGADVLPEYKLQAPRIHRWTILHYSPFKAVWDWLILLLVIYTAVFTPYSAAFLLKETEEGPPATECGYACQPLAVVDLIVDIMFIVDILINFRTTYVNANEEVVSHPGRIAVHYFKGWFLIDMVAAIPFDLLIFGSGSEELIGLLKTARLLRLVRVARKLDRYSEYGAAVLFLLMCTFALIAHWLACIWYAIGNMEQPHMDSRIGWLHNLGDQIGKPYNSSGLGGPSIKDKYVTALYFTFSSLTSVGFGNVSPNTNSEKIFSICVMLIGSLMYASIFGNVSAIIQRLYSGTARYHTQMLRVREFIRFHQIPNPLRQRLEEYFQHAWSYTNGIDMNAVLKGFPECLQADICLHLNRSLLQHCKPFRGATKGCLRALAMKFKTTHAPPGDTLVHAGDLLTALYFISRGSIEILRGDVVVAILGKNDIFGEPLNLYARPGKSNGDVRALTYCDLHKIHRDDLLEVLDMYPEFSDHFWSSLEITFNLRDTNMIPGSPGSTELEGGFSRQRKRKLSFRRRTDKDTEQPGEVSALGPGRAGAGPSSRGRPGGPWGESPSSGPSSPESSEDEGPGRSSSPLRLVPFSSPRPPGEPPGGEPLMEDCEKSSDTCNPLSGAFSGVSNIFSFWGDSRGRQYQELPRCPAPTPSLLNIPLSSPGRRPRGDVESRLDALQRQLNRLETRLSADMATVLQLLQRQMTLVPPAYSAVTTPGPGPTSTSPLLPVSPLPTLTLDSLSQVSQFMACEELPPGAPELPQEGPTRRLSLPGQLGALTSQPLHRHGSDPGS

SMILES	hERG current change (%, negative = inhibition) at 10uM [%]
COc1ccccc1NS(=O)(=O)c1cccc(NC(=O)NC2CCCCC2)c1	11.7
CNC(=O)CN(CCc1ccccc1)S(=O)(=O)c1ccc(OC)cc1	2.12
O=C(NC(Cc1ccccc1)C(=O)O)/C(=C/c1cccc(Br)c1)NC(=O)c1ccco1 (stereo not shown)	12.7
Cc1ccc(-c2csc(N3N=C(c4ccccc4)/C(=C\c4ccc(N(C)C)cc4)C3=O)n2)cc1	-5.17
COc1ccc(/C=N/OC(=O)c2ccc(Cl)cc2)c(Cl)c1OC	3.29
C=CC12CN(C)[C@@H]3C4CO[C@H](C[C@H]41)[C@]1(C(=O)Nc4ccccc41)[C@@H]32 (stereo partly shown)	13.2
Cc1cccc(NS(=O)(=O)c2ccc(NC(=O)N3CCCCC3)cc2)c1	6.45
COc1ccc(C(CC(=O)N2CCOCC2)C(C)C)cc1 (stereo not shown)	24.1
O=C(NCCCN1CCOCC1)c1cc2c(=O)[nH]c3ccccc3c2s1	1.35
Cc1ccc(N(CC(=O)NC2CCCCC2)C(=O)CCCC(=O)Nc2ccccn2)c(C)c1	-2.93
CCN1CCN(c2ccc(S(=O)(=O)N3CCCCC3)cc2NC(=O)c2ccc(F)cc2)CC1	-56.5
CN(C)c1nc(N(C)C)nc(N(C#N)Cc2ccc(Cl)cc2)n1	9.16
COc1ccc(C2CC(c3ccccc3)=NN2C(=O)CSc2ncccn2)cc1 (stereo not shown)	12.3
CCOc1ccc(OCC(=O)OCc2csc(CC(=O)Nc3ccccc3C)n2)cc1	14.8
O=C(Oc1ccc(N2C(=O)CCC2=O)cc1)c1ccccc1Cl	-0.356
COc1cc(CCCN2C(=O)C(=O)NC[C@@H]2CC2CCCCC2)cc(OC)c1OC	4
C=CCn1c(SCC(=O)Nc2ccc(C(=O)O)cc2)nc2sc(C)c(C)c2c1=O	8.9
COc1cccc(/C=N/Nc2ncccc2[N+](=O)[O-])c1OC	-2.19
COCCN(C(=S)Nc1c(C)cc(C)cc1C)C(C)c1cccs1 (stereo not shown)	-24.8
Cc1[nH]n(C(N)=S)c(=O)c1N=Nc1cccc([N+](=O)[O-])c1C	10.9
O=C(CN1C(=O)CCS(=O)(=O)c2ccccc21)Nc1cccc(F)c1	-9.14
COc1ccc(C(c2c(C)n(C)n(-c3ccccc3)c2=O)c2c(C)n(C)n(-c3ccccc3)c2=O)cc1	5.45

SMILES	hERG current change (%, negative = inhibition) at 10uM [%]
Cc1ccc(NC(=O)COC(=O)c2c(-c3ccccc3)noc2C)c(C)c1	1.23
CCOC(=O)C1=C(C)N(c2ccccc2)C(=O)/C1=C\c1cccs1	18.1
COc1cccc(C(=O)NCC(=O)N/N=C/c2ccc(OC(=O)c3cccs3)c(OC)c2)c1	-21.3
COc1cccc(NS(=O)(=O)c2nc3nc(C)cc(C)n3n2)c1	-6.02
COc1ccccc1-c1cc(C(=O)Nc2c(C)n(C)n(-c3ccccc3)c2=O)no1	-34.9
Cc1c(C)c2ccc(OCC(=O)N3CCC(C(=O)O)CC3)cc2oc1=O	-6.41
O=[N+]([O-])c1cccc(/C=C/c2nc[nH]c2[N+](=O)[O-])c1	16.5
COCCCN(C(=O)C1CCC1)c1c(N)n(Cc2ccccc2)c(=O)[nH]c1=O	7.19
Cn1c(SCC(=O)NC2CCCC2)nc2c(c1=O)SCC2	13.4
Cc1cccc(NC(=O)CN(C)CC(=O)NC(c2ccccc2)c2ccccc2)c1C	-30.5
O=C(NC1CCCCCC1)c1cc2c(=O)n3ccccc3nc2s1	0.251
COC(=O)COc1ccc(-c2ccccc2)cc1C=O	5.39
CCC1=NN(C(=O)c2cccc([N+](=O)[O-])c2)C(O)(c2ccc(C)cc2)C1 (stereo not shown)	-0.0698
CCOC(=O)N1CCC(Nc2c(Nc3ccc(F)cc3)c(=O)c2=O)CC1	16.7
CC1(c2nnc(-c3cccc(Cl)c3)o2)CC(c2cccc(Cl)c2)=NO1 (stereo not shown)	-1.03
O=C1NC(=Nc2ccccc2)S/C1=C\c1cccn1-c1ccccc1	8.02
CC(=O)c1cccc(NC(=O)N2CCOCC2)c1	18.1
O=C(NCCN1CCOCC1)c1ccc2c(c1)N(Cc1c(F)cccc1Cl)C(=O)c1ccccc1S2	-14.6
O=C(Nc1ccc2oc(-c3ccncc3)nc2c1)c1ccco1	-7.85
COc1ccc(/C(O)=C2/C(=O)C(=O)N(c3ccccn3)C2c2cccc(Cl)c2)cc1 (stereo not shown)	6.83
CCCNc1c(NC(=O)COc2ccc(Cl)cc2)c(=O)oc2ccccc12	-32.5
O=C1CCC2(C(=O)O)Sc3ccccc3N12 (stereo not shown)	4.28

SMILES	hERG current change (%, negative = inhibition) at 10uM [%]
CCOc1ccccc1N1CCN(C(=S)Nc2ccc(S(=O)(=O)Nc3ncccn3)cc2)CC1	-3.73
O=C(c1ccc(Br)o1)N1CCN(c2ccc(F)cc2)CC1	-45.6
CCOc1ccc(NC(=S)N2CCN(S(=O)(=O)c3ccc(C)cc3)CC2)cc1	-13.2
COc1ccccc1/C=C/C(=O)Nc1cccnc1	10
O=C(COC(=O)c1ccc(NS(=O)(=O)c2ccc3c(c2)OCCO3)cc1)NCC1CCCO1 (stereo not shown)	13.3
COc1cc(CCN)ccc1O.Cl	15.1
C1CCC(n2nnnc2CN2CCCC2)CC1	-1.31
CCOC(=O)c1c(NCC2CCCO2)c2ccccc2[nH]c1=O (stereo not shown)	0.695
O=C(N/N=C/c1cccc([N+](=O)[O-])c1)c1ccccc1-n1cccc1	5.75
CN1C(=O)NC(c2ccc(Cl)cc2)C2=C1CC(C)(C)CC2=O (stereo not shown)	5.73
CCC(=O)N1CCc2cc(S(=O)(=O)N(C)c3ccc(OC)cc3OC)ccc21	19.5
O=C(O)C1CCCCC1C(=O)Nc1cccc2ccccc12 (stereo not shown)	10.5
Cc1cc(C(=O)N/N=C/c2ccc[nH]2)no1	8.35
COc1ccc(NC2c3ncccc3C(=O)N2Cc2cccs2)cc1 (stereo not shown)	-18.4
COCCOC(=O)C1=C(C)N=C2SCCC(=O)N2C1c1ccc(OC(=O)c2ccco2)cc1 (stereo not shown)	-13.4
COc1ccc(NC(=O)COC(=O)CNS(=O)(=O)c2ccccc2)cc1OC	18
Cc1cc(C)cc(Nc2ccc([N+](=O)[O-])nc2[N+](=O)[O-])c1	13.3
O=C(c1ccco1)N1CCN(C(c2cccs2)c2sc3ncnn3c2O)CC1 (stereo not shown)	-2.12
COc1ccc(CNC(=O)c2cccnc2)cc1	7.16
O=C(Cc1ccccc1[N+](=O)[O-])NCc1ccc2c(c1)OCO2	2.62
Cc1sc(NC(=S)Nc2ccc(F)cc2)c(C(N)=O)c1C	7.71
CCOc1ccc(S(=O)(=O)NCCC(=O)OCC(=O)N2CC(=O)Nc3ccccc32)cc1	10.3

SMILES	hERG current change (%, negative = inhibition) at 10uM [%]
OCCCNc1nc(-c2ccc(Cl)cc2)nc2ccccc12	-63.1
CC1CCN(C(=O)c2ccc(-c3ccccc3Cl)o2)CC1	-10.7
O=C(N/N=C/c1cc2c(cc1Cl)OCO2)c1cc(-c2ccccc2)n[nH]1	8.35
CC(=O)c1cc(NC(=O)c2ccc([N+](=O)[O-])cc2)c(=O)oc1C	5.07
CC(Oc1ccc(Cl)cc1Cl)c1nc(-c2ccc(NC(=O)c3cccnc3)cc2)no1 (stereo not shown)	2.88
CCOc1cc(NC(=S)NCC2CCCO2)c(OCC)cc1NC(=O)c1cccc(C)c1 (stereo not shown)	7.08
Cc1ccc(C(=O)OCC(=O)NCc2cccs2)cc1C	11.7
CCc1ccccc1NC(=O)C1C(c2ccccc2)C1(Cl)Cl (stereo not shown)	16.7
O=C(O)CSc1nnc(NC(=O)CN2CCOCC2)s1	26.5
COc1ccc(NS(=O)(=O)c2cc(N)ccc2N2CCCCC2)cc1	-9.8
CN(C(=O)c1ccc(Cl)c(S(=O)(=O)N2CCOCC2)c1)c1ccccc1C(=O)O	1.96
O=C(NCc1ccc(F)cc1)c1cccc2c1C(=O)c1ccc(Cl)cc1S2(=O)=O	11.3
O=C(Nc1ccc2snnc2c1)N1CCN(c2ccccc2)CC1	-57.2
CCOC(=O)N1CCN(C(=O)COc2ccc(Br)cc2Cl)CC1	-40.7
Cc1csc(Nc2nc(N)c(C(=O)Nc3cc(Cl)ccc3F)o2)n1	4.92
CC(=O)N1c2ccc(S(=O)(=O)N3CCCCC3)cc2CC1C(=O)NCc1ccccc1C (stereo not shown)	0.812
COc1ccc(NCc2nc3ccccc3n2CCOc2ccc(C)cc2)cc1	-7.8
NC(=O)C[C@H]1NC(=O)[C@H](CCC(=O)O)NC(=O)c2cc([N+](=O)[O-])cc(I)c2NCCC[C@@H](C(N)=O)NC1=O	7.43
CCN(CC)c1ccc(N=Cc2c(O)n(-c3ccc(OC)cc3)c(=O)[nH]c2=O)cc1	12.8
